Molecular target: T1, alpha-2B adrenergic receptor (Homo sapiens, UniProt P18089)
T1 construct: GST; made in house
Assay: GST affinity chromatography, binding to alpha-2B adrenergic receptor tail
Conditions: in vitro, GST fusion, not shown
Method: The ability of GASP1 to modulate the endocytic sorting of other (non-opioid) GPCRs was examined next. […] The lack of GASP1 interaction with the V2 receptor tail is consistent with the remarkable ability of these receptors to remain in endocytic vesicles for a prolonged period of time after endocytosis without undergoing any detectable downregulation (34).
24. Affinity chromatography was carried out as previously described (25).

T1 sequence (P18089 429-450 limits assumed, species assumed): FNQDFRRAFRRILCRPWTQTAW

B1: cGASP1: carboxyl-terminal fragment of the GASP1 protein, corresponding to the C-terminal 497 residues of GASP1 (protein)
chain: SETEEETIFGSWFWDGKEVSEEAGPCCVSKPEDDEEMIVESWFWSRDKAIKETGTVATCESKPENEEGAIVGSWFEAEDEVDNRTDNGSNCGSRTLADEDEAIVGSWFWAGDEAHFESNPSPVFRAICRSTCSVEQEPDPSRRPQSWEEVTVQFKPGPWGRVGFPSISPFRFPKEAASLFCEMFGGKPRNMVLSPEGEDQESLLQPDQPSPEFPFQYDPSYRSVQEIREHLRAKESTEPESSSCNCIQCELKIGSEEFEELLLLMEKIRDPFIHEISKIAMGMRSASQFTRDFIRDSGVVSLIETLLNYPSSRVRTSFLENMIRMAPPYPNLNIIQTYICKVCEETLAYSVDSPEQLSGIRMIRHLTTTTDYHTLVANYMSGFLSLLATGNAKTRFHVLKMLLNLSENLFMTKELLSAEAVSEFIGLFNREETNDNIQIVLAIFENIGNNIKKETVFSDDDFNIEPLISAFHKVEKFAKELQGKTDNQNDPEGDQEN
- binding to the alpha-2B adrenergic receptor tail: interacted
